14 molecules from the supplement of paper PMC12889115 can be followed below.

This is one part of the list. No stated cut-off is given here; in the data, active = 25% or less and inactive = the rest. Most values come without repeats; read them as rough.

The test system of test [1] is Salmonella enterica serovar Typhimurium SL1344. In words: bacterial growth OD600 after 18 h in MHB with 0.5 µg/mL polymyxin B; higher = more bacterial growth (less inhibition). The settings on record: 25 µM; polymyxin B 0.5 µg/mL; system: broth. The method, then: (§1)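 Secondary screen of the 553 primary hits at 25 µM. (i) S. Typhimurium SL1344 grown in Mueller-Hinton broth with 0.5 µg/mL polymyxin B, OD600 read after 18 h. (ii) SAFIRE assay: RAW 264.7 macrophages infected with S. Typhimurium sifB::gfp (MOI 30); compound added 2 h post-infection; cells fixed at 18 h; GFP-positive pixel fraction per macrophage imaged by confocal microscopy and expressed as % of DMSO control.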

Test [2] shares this test system. In words: intramacrophage bacterial GFP load (SAFIRE), percent of DMSO control (% of DMSO); higher = more intracellular bacteria (less inhibition). The following applies: 25 µM; system: infected RAW 264.7 macrophages. The method, then: as §1
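Wherever bacterial growth OD600 after 18 h in MHB with 0.5 µg/mL polymyxin B is given: polymyxin B level opens the outer membrane while sparing the inner membrane, with novobiocin wells as reference growth inhibitor.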
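Wherever intramacrophage bacterial GFP load (SAFIRE), percent of DMSO control is given: compounds tested were the hits of an earlier 50 µM broth growth screen of a drug-like diversity library run with polymyxin B.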

`COc1cc(OC)c(CN2CCCC(C(=O)c3cccc(Cl)c3)C2)c(OC)c1` (stereo not drawn): in test [1], the “bacterial growth OD600” value was 0.006. In addition, the “intramacrophage bacterial GFP load” value in test [2] was active: 2.43.

`O=C(CN1CCCCC1)N(Cc1ccncc1)Cc1cccc(OCCc2ccc(F)cc2)c1`: in test [1], the “bacterial growth OD600” value was 0.003. Moreover, the “intramacrophage bacterial GFP load” value in test [2] is active: 2.16.

On to `CN1C(=O)CC(CC(=O)N(CCO)Cc2ccccc2)(c2ccc(-c3ccccc3)cc2)C1=O` (stereo not drawn), for which the “bacterial growth OD600” value in test [1] is -0.001. Also, the “intramacrophage bacterial GFP load” value in test [2] is inactive: 91.2.

Consider `COc1ccc2c(c1)SC(c1ccc3c(c1)OCO3)CCN2Cc1ccsc1` (stereo not drawn), for which the “bacterial growth OD600” value in test [1] was determined as 0.006. Also, in test [2], the “intramacrophage bacterial GFP load” value is inactive: 94.7.

Take `COc1ccccc1C1(CC(=O)N2CCCC(c3ccccc3C)C2)CC(=O)N(C)C1=O` (stereo not drawn): the “bacterial growth OD600” value in test [1] stood at 0.011. Besides, in test [2], the “intramacrophage bacterial GFP load” value was inactive: 131.

For `CSCCC(=O)N1CCc2[nH]nc(-c3ccc(Cl)cc3)c2C1`, in test [1], the “bacterial growth OD600” value is 0.007. Besides, the “intramacrophage bacterial GFP load” value in test [2] was inactive: 83.1.

Regarding `Cc1nonc1C1CCCN1c1ccc(-c2nc(C3CC3)no2)cn1` (stereo not drawn), in test [1], the “bacterial growth OD600” value is 0.034. Also, the “intramacrophage bacterial GFP load” value in test [2] was inactive: 86.6.

Turning to `CC(C)c1ccc(NC2CCCN(C(=O)c3ccc4c(c3)OCO4)C2)cc1` (stereo not drawn), in test [1], the “bacterial growth OD600” value turned out to be 0.003. Moreover, the “intramacrophage bacterial GFP load” value in test [2] is active: 7.59.

As to `CCc1ccc(CN(C)C(=O)c2cn(CC3COc4ccccc4O3)nn2)cc1` (stereo not drawn), the “bacterial growth OD600” value in test [1] is -0.001. The “intramacrophage bacterial GFP load” value in test [2] is active: 19.6.

As to `COc1cccc(OC)c1-c1cnnc(NCCC2=CCCCC2)n1`, the “bacterial growth OD600” value in test [1] is 0.001. In addition, the “intramacrophage bacterial GFP load” value in test [2] is inactive: 55.3.

Regarding `Cc1c(C(=O)NCCCc2ccncc2)sc2ncnc(N3CCCCCCC3)c12`, the “bacterial growth OD600” value in test [1] came out at 0.005. In addition, the “intramacrophage bacterial GFP load” value in test [2] was active: 23.4.

In the case of `COc1ccc(C2CCN(Cc3ccc(Sc4nncn4C)o3)c3ccccc3S2)cc1C` (stereo not drawn), the “bacterial growth OD600” value in test [1] turned out to be 0.001. For the same molecule, the “intramacrophage bacterial GFP load” value in test [2] was inactive: 67.4.

Turning to `O=C(CC(c1ccccc1)c1ccccc1Cl)N1CCCC1` (stereo not drawn), the “bacterial growth OD600” value in test [1] was determined as 0.003. In addition, the “intramacrophage bacterial GFP load” value in test [2] was active: 11.7.

Turning to `O=C(CC(c1ccccc1)c1cccc(Cl)c1)N1CCOCC1` (stereo not drawn), in test [1], the “bacterial growth OD600” value is 0.531. For the same molecule, the “intramacrophage bacterial GFP load” value in test [2] is inactive: 146.
